The text below walks through data of publication PMC8971425.

By UniProt entry, the sequences of proteins in these tests, tags left out. Residues count along the entry.
UniProt Q9EP73, residues 19-290: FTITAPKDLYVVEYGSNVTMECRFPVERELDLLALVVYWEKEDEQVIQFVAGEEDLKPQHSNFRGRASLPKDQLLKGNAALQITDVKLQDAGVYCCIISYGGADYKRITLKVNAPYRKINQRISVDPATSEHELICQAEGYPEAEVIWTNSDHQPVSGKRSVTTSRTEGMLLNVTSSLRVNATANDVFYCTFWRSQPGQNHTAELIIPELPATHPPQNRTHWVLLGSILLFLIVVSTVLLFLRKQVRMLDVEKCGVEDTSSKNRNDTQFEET
UniProt Q9NZQ7, residues 19-290: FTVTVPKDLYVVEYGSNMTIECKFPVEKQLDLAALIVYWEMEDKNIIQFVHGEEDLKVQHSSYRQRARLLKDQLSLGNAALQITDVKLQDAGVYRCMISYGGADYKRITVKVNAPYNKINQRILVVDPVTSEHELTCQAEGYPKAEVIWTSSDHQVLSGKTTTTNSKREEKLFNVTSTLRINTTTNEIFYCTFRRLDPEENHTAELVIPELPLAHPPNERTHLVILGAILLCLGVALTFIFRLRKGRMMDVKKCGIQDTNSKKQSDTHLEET

Results are given in words; binding and its absence hold for the method and conditions named. Binding seen in cells or lysates may run through a third protein. Some results given as binding are weak or reduced against the parent protein; the word gives no strength.

The target of test [1] is PD-L1, endogenous in CT26 cells (mouse (endogenous in CT26)) (UniProt Q9EP73). The test is described as follows: co-IP; endogenous proteins; anti-PD-L1 immunoprecipitates from CT26 and PC9 cell lysates; immunoblot. In general terms: In western blotting, separated proteins are transferred to a membrane and probed.
In test [2] the target is PD-L1, endogenous in PC9 cells (human (endogenous in PC9)) (UniProt Q9NZQ7). The description is as above.

B1: USP8, endogenous in CT26 cells (enzyme, UniProt Q80U87 1-1080)
chain: MPAVASVPKELYLSSSLKDLNKKTEVKPEKTSTKNYIHSAQKIFKTAEECRLDRDEERAYVLYMKYVAVYNLIKKRPDFKQQQDYYLSILGPANIKKAIEEAERLSESLKLRYEEAEVRKQLEEKDRREEEQLQQQKRQEMGREDSGAAAKRSVENLLDSKTKTQRINGEKSEGAAAAERGAITAKELYTMMMDKNTSLIIMDARKIQDYQHSCILDSLSVPEEAISPGVTASWIEANLSDDSKDTWKKRGSVDYVVLLDWFSSAKDLLLGTTLRSLKDALFKWESKTVLRHEPLVLEGGYENWLLCYPQFTTNAKVTPPPRSRAEEVSVSLDFTYPSLEEPVPSKLPTQMPPPPIETNEKALLVTDQDEKLRLSTQPALAGPGAAPRAEASPIIQPAPATKSVPQVDRTKKPSVKLPEDHRIKSENTDQSGRVLSDRSTKPVFPSPTTMLTDEEKARIHQETALLMEKNKQEKELWDKQQKEQKEKLRREEQERKAGKTQDADERDSTENQHKAKDGQEKKDSKQTKTEDRELSADGAQEATGTQRQSKSEHEASDAKVPVEGKRCPTSEAQKRPADVSPASVSGELNAGKAQREPLTRARSEEMGRIVPGLPLGWAKFLDPITGTFRYYHSPTNTVHMYPPEMAPSSAPPSTPPTHKVKPQVPAERDREPSKLKRSYSSPDITQALQEEEKRRPAVTPMVNRENKPPCYPKAEISRLSASQIRNLNPVFGGSGPALTGLRNLGNTCYMNSILQCLCNAPHLADYFNRNCYQDDINRSNLLGHKGEVAEEFGIIMKALWTGQYRYISPKDFKVTIGKINDQFAGSSQQDSQELLLFLMDGLHEDLNKADNRKRHKEENNEHLDDLQAAEHAWQKHKQLNESIIVALFQGQFKSTVQCLTCRRRSRTFEAFMYLSLPLASTSKCTLQDCLRLFSKEEKLTDNNRFYCSHCRARRDSLKKIEIWKLPPVLLVHLKRFSYDGRWKQKLQTSVDFPLENLDLSQYVIGPKNSLKKYNLFSVSNHYGGLDGGHYTAYCKNAARQRWFKFDDHEVSDISVSSVRSSAAYILFYTSLGPRITDVAT
For the molecule B1, in test [1], the binding result is “binds”.

B2: USP8, endogenous in PC9 cells (enzyme, UniProt P40818 1-1118)
chain: MPAVASVPKELYLSSSLKDLNKKTEVKPEKISTKSYVHSALKIFKTAEECRLDRDEERAYVLYMKYVTVYNLIKKRPDFKQQQDYFHSILGPGNIKKAVEEAERLSESLKLRYEEAEVRKKLEEKDRQEEAQRLQQKRQETGREDGGTLAKGSLENVLDSKDKTQKSNGEKNEKCETKEKGAITAKELYTMMTDKNISLIIMDARRMQDYQDSCILHSLSVPEEAISPGVTASWIEAHLPDDSKDTWKKRGNVEYVVLLDWFSSAKDLQIGTTLRSLKDALFKWESKTVLRNEPLVLEGGYENWLLCYPQYTTNAKVTPPPRRQNEEVSISLDFTYPSLEESIPSKPAAQTPPASIEVDENIELISGQNERMGPLNISTPVEPVAASKSDVSPIIQPVPSIKNVPQIDRTKKPAVKLPEEHRIKSESTNHEQQSPQSGKVIPDRSTKPVVFSPTLMLTDEEKARIHAETALLMEKNKQEKELRERQQEEQKEKLRKEEQEQKAKKKQEAEENEITEKQQKAKEEMEKKESEQAKKEDKETSAKRGKEITGVKRQSKSEHETSDAKKSVEDRGKRCPTPEIQKKSTGDVPHTSVTGDSGSGKPFKIKGQPESGILRTGTFREDTDDTERNKAQREPLTRARSEEMGRIVPGLPSGWAKFLDPITGTFRYYHSPTNTVHMYPPEMAPSSAPPSTPPTHKAKPQIPAERDREPSKLKRSYSSPDITQAIQEEEKRKPTVTPTVNRENKPTCYPKAEISRLSASQIRNLNPVFGGSGPALTGLRNLGNTCYMNSILQCLCNAPHLADYFNRNCYQDDINRSNLLGHKGEVAEEFGIIMKALWTGQYRYISPKDFKITIGKINDQFAGYSQQDSQELLLFLMDGLHEDLNKADNRKRYKEENNDHLDDFKAAEHAWQKHKQLNESIIVALFQGQFKSTVQCLTCHKKSRTFEAFMYLSLPLASTSKCTLQDCLRLFSKEEKLTDNNRFYCSHCRARRDSLKKIEIWKLPPVLLVHLKRFSYDGRWKQKLQTSVDFPLENLDLSQYVIGPKNNLKKYNLFSVSNHYGGLDGGHYTAYCKNAARQRWFKFDDHEVSDISVSSVKSSAAYILFYTSLGPRVTDVAT
Regarding B2, the binding result in test [2] is given as “binds”.
